The campaign covered roughly 110,000 compounds. About 230 (0.21%) showed an effect of 50% or more. Some of the results follow.
target: DPAP1 (Plasmodium falciparum, UniProt Q8IIJ9); experiment: primary screen, percent inhibition; read by cleavage of a fluorogenic dipeptide substrate; higher = more effect of the substance; set-up: species or system P. falciparum D10 trophozoite lysates; single well
Protocol: HTS was performed in black 384-well plates. The first and last two columns of each plate contained our negative (DMSO) and positive (10 μM JCP410) controls, and the 20 central columns the test compounds at 10 μM. Compounds were first diluted 50-fold into assay buffer (50 mM sodium acetate, 5 mM MgCl2, 10 mM β-mercaptoethanol, and 0.1% CHAPS, pH 5.5) from a 10 mM DMSO stock plates. One microliter of this 200 μM intermediate stock plate was dispensed into the assay plate. […] After 30 min, the reaction was quenched with 20 μL of 0.5 M acetic acid, and the fluorescent intensity measured at 523 nm (λex = 492 nm) using an Analyst HT multimode plate reader (Molecular Devices).
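Further: 30 min substrate incubation versus DMSO and 10 µM JCP410 controls.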

DPAP1, sequence (Q8IIJ9 whole entry, looked up): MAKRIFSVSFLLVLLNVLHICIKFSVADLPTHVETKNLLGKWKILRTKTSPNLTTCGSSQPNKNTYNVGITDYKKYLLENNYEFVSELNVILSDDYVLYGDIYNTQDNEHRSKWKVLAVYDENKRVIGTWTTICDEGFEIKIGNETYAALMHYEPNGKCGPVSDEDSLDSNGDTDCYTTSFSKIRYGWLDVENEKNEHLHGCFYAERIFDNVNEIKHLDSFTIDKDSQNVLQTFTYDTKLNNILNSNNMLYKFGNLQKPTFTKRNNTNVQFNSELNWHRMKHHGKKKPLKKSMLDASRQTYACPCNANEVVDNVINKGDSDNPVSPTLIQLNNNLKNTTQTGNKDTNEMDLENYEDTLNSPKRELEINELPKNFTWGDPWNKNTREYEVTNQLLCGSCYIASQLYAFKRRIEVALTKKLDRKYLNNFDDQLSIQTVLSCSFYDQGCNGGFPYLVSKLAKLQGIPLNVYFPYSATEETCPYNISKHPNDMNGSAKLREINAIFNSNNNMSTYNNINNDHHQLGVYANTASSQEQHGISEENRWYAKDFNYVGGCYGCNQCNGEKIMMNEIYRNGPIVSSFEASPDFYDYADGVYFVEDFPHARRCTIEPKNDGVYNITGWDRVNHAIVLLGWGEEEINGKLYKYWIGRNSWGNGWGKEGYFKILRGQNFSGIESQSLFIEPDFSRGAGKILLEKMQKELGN

Row | Structure (SMILES) | % Inhibition @ 10 uM
1 | CCOCCCN(Cc1ccco1)C(=O)c1cc2c(=O)oc3ccc(C)cc3c2s1 | 4.68%
2 | CCOc1ccc(/N=C/Nc2ccc(OCC)cc2)cc1 | -10.7%
3 | Cc1cc2ccccc2c(=O)n1CC(=O)NCCCN1CCC(C)CC1 | -1.51%
4 | CC(=O)Nc1ccc(NC(=O)C(C)Oc2ccccc2C)cc1 (stereo not drawn) | -4.02%
5 | COC(=O)C1=C(C)N(Cc2ccco2)C(=O)/C1=C\c1cc(C)n(-c2ccc(OC)c(Cl)c2)c1C | -3.63%
6 | CCC1CCc2c(sc(NC(=O)C3CCCCC3C(=O)O)c2C(N)=O)C1 (stereo not drawn) | 3.04%
7 | CCO/C(O)=C1\C(C)=NC(=S)NC1c1ccc(OC)c2ccccc12 (stereo not drawn) | 3.06%
8 | O=S(=O)(Nc1nc2ccccc2nc1-n1cnc2ccccc21)c1ccccc1 | -0.415%
9 | CCC1CCc2c(sc(NS(=O)(=O)c3ccc(NC(C)=O)cc3)c2C(N)=O)C1 (stereo not drawn) | 7.03%
10 | CN1CCc2c(sc(N)c2C(=O)OC(C)(C)C)C1 | -2.97%
11 | O=C(c1cccnc1)N1CCN(c2ccc(F)cc2)CC1 | -0.833%
12 | CC(C)CC(NC(=O)c1ccc(NC(=O)Nc2nccs2)cc1)C(=O)NCC#N (stereo not drawn) | -5.64%
13 | C=CCOC(=O)C1=C(C)N=C2CCCC(O)=C2C1c1cccc(Cl)c1Cl (stereo not drawn) | -4.18%
14 | CCC(C)NC(=O)C1CC(c2ccc(F)cc2)=NO1 (stereo not drawn) | 2.85%
15 | CC(CCc1ccccc1)NC(=O)Cn1cc2c(n1)CCCC2 (stereo not drawn) | 1.8%
16 | CCOc1ccc(CNc2nc3ccc(Cl)cc3nc2-n2nc(C)cc2C)cc1OC | 2.56%
17 | O=C(OCCCC(F)(F)C(F)(F)F)c1ccccc1C(=O)n1nnc2ccccc21 | -8.17%
18 | Cc1cccc(NC(=O)c2cc3c(s2)-c2c(C)cccc2OC3)n1 | -1.37%
19 | Fc1ccc(F)c(CN2CCN(c3ccccc3)CC2)c1 | 1.08%
20 | Cn1c(=O)n(C)c2cc(/C=C3/SC(=O)N(Cc4ccccc4Cl)C3=O)ccc21 | -12.1%
21 | COc1cc(C(=O)Nc2cccc(-c3nc4ncccc4o3)c2)cc(OC)c1OC | 5.07%
22 | CSc1ncc(C(=O)N[C@@H](CC(C)C)C(=O)NCC#N)cn1 | -3.48%
23 | Cc1nn(-c2ccccc2)c(O)c1C1(C(F)(F)F)C(=O)Nc2c1c(=O)[nH]c(=O)n2Cc1ccco1 (stereo not drawn) | 1.91%
24 | COCc1[nH]nc2c1C(c1cc(Br)ccc1F)C(C#N)=C(N)O2 (stereo not drawn) | 3.99%

Row | Structure (SMILES) | % Inhibition @ 10 uM
25 | Cc1ccc2nc(NC(=O)C3CCN(S(=O)(=O)c4cccs4)CC3)sc2c1 | 31.4%
26 | Cc1ccc(NC(=O)C2CCCN2C(=O)C(C)(C)C)cc1 (stereo not drawn) | 7.93%
27 | Nc1cc(=O)[nH]c(=O)n1Cc1ccccc1 | 2.03%
28 | C=CCOc1nc2c(c(=O)n(Cc3ccc(Br)cc3)c(=O)n2C)n1C | 3.6%
29 | COc1ccc(N2C(=O)CC(NCc3ccc(Cl)cc3)C2=O)cc1 (stereo not drawn) | 1.15%
30 | COc1ccc2c(c1)CC/C(=C\c1ccc([N+](=O)[O-])cc1)C2=O | -1.77%
31 | Cc1cc(C)c2nnc(SCC(=O)Nc3nccs3)n2n1 | -1.05%
32 | O=C(Cn1nnc2sc(-c3ccccc3)cc2c1=O)c1ccc(Cl)cc1 | -0.946%
33 | COc1ccc(Nc2nc(OC(C(F)(F)F)C(F)(F)F)nc(N3CCOCC3)n2)cc1 | -3.58%
34 | CCOc1ccc(CCNC(=O)C(CC)n2sc3ccccc3c2=O)cc1OCC (stereo not drawn) | -8.05%
35 | O=C(Nc1ccc(Cl)cc1)c1cc2n(n1)C(C(F)(F)F)CC(c1ccco1)N2 (stereo not drawn) | 4.07%
36 | O=C(CSc1ccccn1)N1CCN(S(=O)(=O)c2ccccc2)C1 | 6.47%
37 | O=C(c1ccccc1F)c1cn(CC(=O)N2CCCCC2)c2ccccc12 | -1.72%
38 | COc1ccc(/C=C2\N=C(c3ccc(C)cc3)OC2=O)cc1OC | -2.23%
39 | CCOc1cc(C2C(C#N)=C(N)Oc3c2c(C)nn3-c2ccccc2)ccc1O (stereo not drawn) | -5.79%
40 | Cc1nc2c(c(C)nn2-c2ccccc2)c(C)c1CCC(=O)NC1CCN(Cc2ccccc2)CC1 | -2.25%
41 | CCN1CCCC1CNC(=O)C1CCN(c2ncnc3c2nc2n3CCCCC2)CC1 (stereo not drawn) | 0.483%
42 | Cc1ccc(CCNC(=O)Cn2ccc3cc(S(=O)(=O)N4CCCC4)ccc32)cc1 | -2%
43 | O=C(CCCSc1nc(-c2ccco2)cc(C(F)(F)F)n1)NCC1CCCO1 (stereo not drawn) | -11.5%
44 | CCOc1nc(-c2ccccc2)nc(C)c1Cc1ccccc1 | 2.89%
45 | O=C(NCC(c1ccco1)N1CCCC1)c1ccc(Br)cc1 (stereo not drawn) | 3.66%
46 | O=C1CC(c2cccc(O)c2)c2c(O)nc(SCc3ccccc3Cl)nc2N1 (stereo not drawn) | 8.16%
47 | Cc1cc2oc(C(=O)Nc3nnc(CC(C)C)s3)cc(=O)c2cc1C | -3.24%
48 | Cc1ccc(C(=O)NC(C)c2ccc3c(c2)OCCO3)cc1 (stereo not drawn) | 0.13%
